In PubChem BioAssay AID493208 (National Center for Advancing Translational Sciences (NCATS), 2011):
About 340 (0.77%) of roughly 44,000 compounds were called active. Roughly 5% stayed inconclusive and do not appear here. The call rests on the fitted dose curve; in most records, active means well fitted inhibition curve with a large enough effect; inconclusive means small, poorly fitted or top-dose-only effect; inactive means flat fitted curve, though single readings scatter. The list shows a part of the results.

Assay: Acumen qHTS Assay for Inhibitors of the mTORC1 Signaling Pathway in MEF (Tsc2-/-, p53-/-) Cells: Sytravon; further: nearly all actives have a fitted effect of over 50% in size;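 on activity change, negative = inhibition: plate controls were DMSO for no effect and rapamycin for full effect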
Details: phospho-rpS6 immunofluorescence/PI, 24 h; series mostly up to 38.3 µM; activity change, negative = inhibition: at the top concentration
Method in brief: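 Readout is phospho-S6 Alexa 488 signal normalized to PI per well, reported as % active cells with thresholds set from rapamycin (7.5 nM) and DMSO controls. Cells: Tsc2-/-, p53-/- MEFs, 24 hrs compound at 37 C; PI cell number serves as viability.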
Potency means the concentration at half of the fitted maximal effect.

Row | SMILES | activity change, negative = inhibition | Potency
1 | CC(CNC(=O)CN1C(=O)c2cccnc2Oc2ccc(Cl)cc21)c1ccccc1 (stereo unspecified) | inactive: -7.49% | –
2 | COc1ccc(-c2noc(-c3ccc(N4CCN(c5ccccc5)CC4)c([N+](=O)[O-])c3)n2)cc1 | inactive: 2.26% | –
3 | COC(=O)c1ccc(NC(=O)N2CCN(Cc3cc(=O)n4nc(-c5ccc(C)cc5)sc4n3)CC2)cc1 | inactive: 4.05% | –
4 | Cc1ccc(/C=C/c2onc(C)c2S(=O)(=O)N2CCC(C(=O)N3CCN(c4ccccc4F)CC3)CC2)cc1 | inactive: -4.4% | –
5 | O=C(NCc1nc2ccccc2[nH]1)c1c(F)cccc1F | inactive: 0.544% | –
6 | Cc1cccc(-n2c(C)nc3cc(C(=O)NCCC4=CCCCC4)ccc32)c1 | inactive: -0.39% | –
7 | COc1ccc(NC(=O)CCNS(=O)(=O)c2cccc3nsnc23)cc1Cl | inactive: -6.29% | –
8 | CCn1c(=O)cc(OCC(=O)N2CCN(c3ccc(OC)cc3)CC2)c2ccccc21 | inactive: -6.9% | –
9 | CCCS(=O)(=O)N1CC(=O)N(c2ccc(C)cc2)C(C)(C(=O)NC2CCCCCC2)C1 (stereo unspecified) | inactive: 1.88% | –
10 | CCOc1ccccc1CN1CCc2nc(Nc3ccc4c(c3)OCCO4)ncc2C1 | inactive: -0.0208% | –
11 | COc1ccc(CCNC(=O)c2cc3sccc3n2Cc2ccc(Cl)cc2)cc1OC | inactive: 9.27% | –
12 | Cc1oc2ncn(CC(C)C)c(=O)c2c1C(=O)NC(C)c1ccccc1 (stereo unspecified) | inactive: -2.12% | –
13 | CCOc1ccc(NC(=O)Cn2c(=O)c(CNc3ccc(CC)cc3)cc3cc4c(cc32)OCO4)cc1 | inactive: -0.224% | –
14 | Cc1ccc(CNc2ncnc3onc(-c4ccc(F)cc4)c23)cc1 | inactive: 1.34% | –
15 | Cc1cc(C)c2nc(NC(=O)c3ccc(S(=O)(=O)N4CCc5ccccc54)cc3)sc2c1 | inactive: -0.71% | –
16 | Cc1cccc(-n2ccnc2SCC(=O)Nc2cccc3ccccc23)c1C | inactive: 0.889% | –
17 | CCOc1ccc(Nc2nnc(-n3nc(C)cc3C)c3ccccc23)cc1 | inactive: -1.36% | –
18 | COc1ccc(C(=O)Nc2ccc3c(c2)CCCN3C(=O)c2cccs2)c(OC)c1 | inactive: 10.2% | –
19 | COc1cc(OC)c(NC(=O)N2CCCn3nc(C)cc32)cc1Cl | inactive: -22.1% | –
20 | COCCn1c(C)cc(O)c(C(c2ccccc2)N2CCN(c3ccccc3)CC2)c1=O (stereo unspecified) | inactive: -0.121% | –
21 | COc1ccc(-c2nnc(SCC(=O)NC3CCCCC3)nc2-c2ccc(OC)cc2)cc1 | inactive: -3.92% | –
22 | O=C(Cn1c(=O)n(Cc2ccc3c(c2)OCO3)c(=O)c2oc3ccccc3c21)Nc1ccccc1F | inactive: -2.59% | –
23 | CCCCSc1nnc2c(n1)OC(C)N(C(C)=O)c1ccccc1-2 (stereo unspecified) | inactive: -1.87% | –
24 | CCc1ccccc1NC(=O)CC1Sc2ccc(C(F)(F)F)cc2NC1=O (stereo unspecified) | inactive: 0.284% | –

Row | SMILES | activity change, negative = inhibition | Potency
25 | COc1ccc(CCNC(=O)C2COc3ccccc3C2)cc1OC (stereo unspecified) | inactive: 2.73% | –
26 | COc1ccc(CCNC(=O)Cc2c(C)c3cc4c(C)coc4c(C)c3oc2=O)cc1 | inactive: -9.18% | –
27 | Cn1c(Oc2ccc(Cl)cc2)nc2c1c(=O)n(Cc1ccc(F)cc1)c(=O)n2C | inactive: 6.38% | –
28 | O=C(NCCc1ccccc1)c1ccc2c(c1)N(Cc1ccc(F)cc1)C(=O)c1ccccc1S2 | inactive: -4.75% | –
29 | COc1ccc(C(=O)NC(c2ccc(Cl)cc2)c2cc(Cl)c3cccnc3c2O)cc1 (stereo unspecified) | inactive: 1.71% | –
30 | CCCCN(CC)C(=O)c1cc2c(=O)n3cccc(C)c3nc2s1 | inactive: -10.6% | –
31 | Cc1cc(C)cc(NC(=O)CCC(=O)N2CCSc3ccccc32)c1 | inactive: 0% | –
32 | COc1cc(Cl)c(C)cc1NC(=O)c1cnc(N2CCOCC2)c2ccccc12 | inactive: -11.5% | –
33 | Cc1ccc(Nc2ccc(N3CCN(C(=O)c4ccc([N+](=O)[O-])cc4)CC3)nn2)cc1 | inactive: -1.2% | –
34 | Cc1cccn2c(=O)c3cc(C(=O)Nc4ccc(Cl)c(Cl)c4)sc3nc12 | inactive: 4.57% | –
35 | Cn1c(SCc2ccc(Br)cc2)nc2c([nH]c3ccccc32)c1=O | inactive: -4.05% | –
36 | Cc1ccc(S(=O)(=O)NCCc2csc(-c3cccc(F)c3)n2)cc1 | inactive: -3.4% | –
37 | CCOC(=O)c1cccc(NS(=O)(=O)c2cc3c(cc2C)NC(=O)CO3)c1 | inactive: 2.24% | –
38 | Cc1ccc(NC(=O)CN2C(=O)CC(C)Sc3ccccc32)c(C)c1 (stereo unspecified) | inactive: -3.85% | –
39 | Cc1nc2ccn(Cc3ccco3)c(=O)c2cc1C(=O)NCc1ccc(F)cc1 | inactive: -14.8% | –
40 | Cc1oc2ccc(O)c(CN3CCOCC3)c2c1C(=O)Nc1cccc(Cl)c1C | inactive: 7.39% | –
41 | CCNC(=O)Cn1nc(C)n2c(cc3c(OC)cccc32)c1=O | inactive: 0.594% | –
42 | Cc1c(Cl)cccc1-n1ncc(C(=O)N2CCOCC2)c1C1CCN(C(=O)OC(C)(C)C)CC1 | inactive: -8.92% | –
43 | Cc1cc(C)n(C(C)CC(=O)NCc2ccc(Cl)cc2)n1 (stereo unspecified) | inactive: 5.63% | –
44 | Cc1ccc(OCCCSc2nc(-c3ccc(C(C)(C)C)cc3)nc3cc(=O)[nH]n23)cc1C | inactive: -1% | –
45 | Cc1ccc(OCC(=O)OCc2cc(=O)n3nc(C4CC4)sc3n2)cc1 | inactive: 1.38% | –
46 | COCCCNC(=O)C1CCN(c2cc(C)nc3c(-c4ccc(Cl)cc4)c(C)nn23)CC1 | inactive: -4.21% | –
47 | CCOC(=O)Cn1c(=O)n(-c2ccccc2OC)c2nc(-c3ccc(C(C)C)cc3)nc(C(N)=O)c21 | inactive: 3.62% | –
48 | COc1ccc(C(=O)NCCn2cc(SCC(=O)Nc3ccc4c(c3)OCCO4)c3ccccc32)cc1OC | inactive: -13.2% | –

Row | SMILES | activity change, negative = inhibition | Potency
49 | CC(C)CC1Nc2ccc(C(=O)NCCCOC(C)C)cc2NC1=O (stereo unspecified) | inactive: -14.9% | –
50 | CCc1nn2c(=O)cc(COC(=O)C(CC)c3ccccc3)nc2s1 (stereo unspecified) | inactive: 1.34% | –
51 | CCOC(=O)c1c(Oc2ccc(C(C)=O)cc2)nnc(-c2ccccc2)c1-c1ccccc1 | inactive: -4.63% | –
52 | CCCNC(=O)CSc1nc(-c2ccc(OC)cc2)cc(C(F)(F)F)n1 | inactive: -0.342% | –
53 | O=C(CC1N=C2c3ccccc3N=C(SCC(=O)Nc3ccc(F)cc3)N2C1=O)NCc1cccs1 (stereo unspecified) | inactive: 0.357% | –
54 | COc1ccc2c(CNCc3cccs3)c(C(=O)O)n(Cc3ccccc3F)c2c1 | inactive: 5.05% | –
55 | O=C(NCc1ccccc1)c1ccc2oc(=O)n(Cc3ccccc3)c2c1 | inactive: 0% | –
56 | COc1ccc(CC(=O)N2CCc3cc(OC)c(OC)cc3C2COc2ccc(F)cc2)cc1OC (stereo unspecified) | inactive: 1.14% | –
57 | CN(C)c1ccc(NC(=O)CSC2=Nc3ccccc3C3=NC(CCC(=O)NCc4cccs4)C(=O)N23)cc1 (stereo unspecified) | inactive: -4.21% | –
58 | Cn1c(SCC(=O)Nc2nc3ccccc3s2)ncc(C(=O)Nc2ccc(F)cc2)c1=O | inactive: -0.458% | –
59 | COc1cccc(C(=O)Nc2cccc(C(=O)OCc3cc(=O)n4c(C)csc4n3)c2)c1 | inactive: 12.9% | –
60 | NS(=O)(=O)c1ccc2nc(NC(=O)COc3ccc(Cl)cc3Cl)sc2c1 | inactive: 9.65% | –
61 | Cc1c(C(=O)NC(C)c2ccccc2)sc2nc3n(c(=O)c12)CCCC3 (stereo unspecified) | inactive: 7.01% | –
62 | CCOC(=O)COc1ccc(C)cc1C(=O)c1ccn2nc(-c3ccc(F)cc3)cc2n1 | inactive: -1.9% | –
63 | CC1CCN(C(=O)c2cccc(NC(=O)c3nsc4ccccc34)c2)CC1 | inactive: 5.08% | –
64 | Cc1nc2scc(C)n2c(=O)c1S(=O)(=O)Nc1cccc(C(F)(F)F)c1 | inactive: -23% | –
65 | CCOc1ccc(-n2nc3ccc(NC(=O)c4ccc(-c5cccc(Cl)c5)o4)cc3n2)cc1 | – | active: 11.7 µM
66 | CN1CCc2nc3sc(C(=O)Nc4ccccc4C(F)(F)F)c(N)c3cc2C1 | inactive: -7.89% | –
67 | COc1ccccc1Cc1nc2ccccc2nc1SCC(=O)NCc1ccccc1Cl | inactive: -20.7% | –
68 | CC1=C(C(=O)OC2CCCCCC2)C(c2cccc(Cl)c2)CC(=O)N1 (stereo unspecified) | inactive: -21.4% | –
69 | CCCC1=Nc2cc(C(=O)N3CCC(C)CC3)ccc2Sc2ccc(C)cc21 | inactive: -9.51% | –
70 | Cc1ccc2c(=O)c(C(=O)c3cccc(Cl)c3)cn(CC(=O)Nc3ccccc3C(F)(F)F)c2n1 | inactive: 3.3% | –
71 | COc1ccccc1C(=O)OCc1cc(=O)n2nc(C(C)C)sc2n1 | inactive: 0% | –
72 | CC1=Nc2cc(C(=O)NCCc3ccc(Cl)cc3)ccc2Sc2c(C)ccc(C)c21 | inactive: -11.2% | –

Row | SMILES | activity change, negative = inhibition | Potency
73 | CCOC(=O)CC(=O)CSc1nc2ccccc2c(=O)n1CCc1ccc(S(N)(=O)=O)cc1 | inactive: 0.0373% | –
74 | CC1CCCCN1CCCNC(=O)c1cc(Sc2ccc(Cl)cc2)nc2ccccc12 (stereo unspecified) | inactive: -18.5% | –
75 | COc1ccccc1CNC(=O)c1oc2ccc3c(c2c1C)C(=O)CC(C)(C)O3 | inactive: -3.26% | –
76 | COc1ccc(-c2noc(-c3ccc(NCC4CCCO4)c([N+](=O)[O-])c3)n2)cc1OC (stereo unspecified) | inactive: 5.66% | –
77 | CC(=O)Nc1ccc(NC(=O)CCS(=O)(=O)c2ccc3c(c2)CC(=O)N3C)cc1 | inactive: -0.14% | –
78 | Cc1ccc(C)c(CNC(=O)c2cc3ccccn3n2)c1 | inactive: 10.2% | –
79 | COc1ccc(NC(=O)Cn2cc(S(=O)(=O)Cc3ccc(F)cc3)c3ccccc32)cc1OC | inactive: -6.17% | –
80 | CCOC(=O)C1CCC(CN(Cc2cccc(Br)c2)S(=O)(=O)c2ccc(Cl)cc2)CC1 (stereo unspecified) | inactive: 3.49% | –
81 | CCOC(=O)N1CCc2c(sc3c2C(=O)NC(c2ccccc2F)N3)C1 (stereo unspecified) | inactive: -6.73% | –
82 | COc1ccc(N2CC(NC(=O)COc3ccc4ccccc4c3)CC2=O)cc1OC (stereo unspecified) | inactive: -12.6% | –
83 | CCN1C(=O)C(Cc2nc3ccccc3c(=O)n2-c2ccc(OC)cc2)c2ccccc21 (stereo unspecified) | inactive: 4.78% | –
84 | CC1Cc2cc(S(=O)(=O)NCc3ccc(N(C)C)cc3)ccc2N1C(=O)C1CCC1 (stereo unspecified) | inactive: -2.39% | –
85 | Cc1ccc(-n2c(=O)c3c4c(sc3n(CC(=O)Nc3ccccc3C)c2=O)CCCCC4)cc1C | inactive: 2.03% | –
86 | COc1ccccc1CNc1nccn(-c2ccccc2)c1=O | inactive: -0.429% | –
87 | CCN(CC)c1ccc(-c2nc(-c3ccco3)no2)cc1[N+](=O)[O-] | inactive: 3.18% | –
88 | CCC(C)NC(=O)c1sc2nc(C)c(C(=O)Nc3ccc(C)cc3C)c(-c3ccccc3Cl)c2c1N (stereo unspecified) | inactive: 13.5% | –
89 | COc1ccc(NC(=O)c2cnc(N3CCCCC3)c3ccccc23)cc1Cl | inactive: -6.34% | –
90 | Cc1ccc(CCNC(=O)c2ccc3c(=O)n(-c4ccccc4)c(=O)[nH]c3c2)cc1 | inactive: -11.9% | –
91 | Cn1cc(S(=O)(=O)N2CCCCC2)cc1C(=O)Nc1cccc(C#N)c1 | inactive: -4.49% | –
92 | CCOC(=O)c1cccc2c1N[C@@H](c1ccc(F)cc1)[C@H]1CC=C[C@@H]21 | inactive: -15.3% | –
93 | Cc1ccc(CNC(=O)Cn2c(=O)n(Cc3ccc(F)cc3)c(=O)c3sc4ccccc4c32)cc1 | inactive: -20.5% | –
94 | O=C(Nc1ccc(Cl)cc1)N1CCC(c2ccccc2)C1 (stereo unspecified) | inactive: -5.46% | –
95 | Cc1cc(-c2ccc(S(=O)(=O)Nc3ccc(Cl)cc3C)cc2)on1 | inactive: -8.36% | –
96 | COc1cccc(N2CC(NC(=O)/C=C\c3ccc(OC)c(OC)c3)CC2=O)c1 (stereo unspecified) | inactive: -0.767% | –
